Among all 48,000 compounds or so, about 450 (0.94%) were called active. Not shown: some 19% with an inconclusive outcome. The call rests on the fitted dose curve; in most records, active means well fitted inhibition curve with a large enough effect; inconclusive means small, poorly fitted or top-dose-only effect; inactive means no such curve, though single readings can be large or run the other way. The list shows a part of the results.

This assay is described as follows: Primary qHTS for Identification of Small Molecule Inhibitors of Huntingtin Promoter Activity. Further: nearly all actives have a fitted effect of over 50% in size. Particulars: HEK293 HTT promoter firefly luciferase reporter (activity 0% = vehicle and -100% = no light), 24 h; series mostly up to 57.5 µM; activity change, negative = inhibition: at the top concentration. The essentials:
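Firefly luciferase readout (Dual-Glo, 10 min RT) after 24 h, 37 °C compound exposure (final up to 57.5 uM) of HEK293 reporter cells cultured 24 h beforehand; PTC124 at 50 uM final as control inhibitor; activity scaled vehicle 0%, zero RLU -100%.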
A general note: qHTS replaces the single test concentration by a dilution series.
In the case of `Cc1c(Cl)cccc1NC(=O)Cn1nnc(-c2nc(-c3ccccc3)no2)c1N`, the “activity change, negative = inhibition” value was inactive: 8.08%.
With `Cc1cccc(C)c1NC(=O)CSc1nc2ccccc2c2nc(CCc3c(C)n[nH]c3C)nn12`, the “activity change, negative = inhibition” value is inactive: -3.72%.
To `CCn1cc(C(=O)NCCc2ccc(C)cc2)c(=O)c2cc(S(=O)(=O)N3CCC(C)CC3)ccc21` belongs inactive: -5.24%.
`CCCOc1ccc(OC(=O)c2cn(-c3ccc(OC)cc3)c(=O)c3ccccc23)cc1`: the “activity change, negative = inhibition” value is inactive: -13.8%.
As to `COc1cccc(-c2nn3c(=O)cc(CN4CCN(C(=O)/C=C/c5ccccc5)CC4)nc3s2)c1`, the “activity change, negative = inhibition” value was inactive: -6.35%.
The figure for `CCOc1ccccc1NC(=O)C1=C(C)Nc2ncnn2C1c1cccs1` (stereo not given) is inactive: -5.99%.
The figure for `COc1cc(NC(=O)c2nc3ccccc3n(C)c2=O)cc(OC)c1OC` is inactive: 24.2%; for `Cc1ccc(CCNC(=O)CCS(=O)(=O)c2cc3c(cc2Cl)NC(=O)CO3)cc1` it is inactive: -1.12%.
Take `CC(C)NC(=O)CN1C(=O)c2cccnc2Sc2ccccc21`: the “activity change, negative = inhibition” value is inactive: -7.74%.
For `O=C(OCc1cc(=O)n2nc(C3CC3)sc2n1)c1ccccc1Cl`, the “activity change, negative = inhibition” value is inactive: 34.8%.
To `COc1ccc(CNC(=O)C2=CC(c3cccc(OC)c3)=NS(=O)(=O)N2C)cc1` belongs inactive: -19.3%; to `COC(=O)c1c(-c2ccc(Cl)cc2)noc1N1CCN(c2ccc(F)cc2)CC1`, inactive: 5.57%; to `Cc1ccc(-c2nc(-c3cc4cccc(OCc5ccccc5F)c4oc3=O)no2)cc1`, inactive: -10.7%.
The figure for `COc1ccc(NC(=O)c2csnn2)cc1` is inactive: 61.1%; for `Cc1ccc(NC(=O)Cn2c(=O)n(Cc3ccc(C(=O)NCc4ccc5c(c4)OCO5)cc3)c(=O)c3ccccc32)cc1` it is inactive: -4.61%; for `CCOc1ccc(CNC(=O)CCS(=O)(=O)c2ccc3c(c2)oc(=O)n3C)cc1` it is inactive: -10.8%.
To `COc1cc(C(=O)Nc2ccc(OCc3cc(=O)n4cc(C)sc4n3)cc2)cc(OC)c1OC` belongs inactive: -18.8%.
For the compound `O=C(NCCc1ccccc1)c1c[nH]c2ccc(S(=O)(=O)Nc3ccccc3F)cc2c1=O`, the “activity change, negative = inhibition” value was inactive: -20%.
As for `COc1ccc(NC(=O)Nc2nnc(N(C)C3CCCCC3)s2)c(OC)c1`, the “activity change, negative = inhibition” value is inactive: -11.1%.
`CCOC(=O)c1sc(NC(=O)COc2ccccc2Cl)c(C(=O)OCC)c1C`: the “activity change, negative = inhibition” value was inactive: 10.6%.
The figure for `Cc1ccccc1NC(=O)CSc1nc2c(oc3ccccc32)c(=O)n1-c1ccccc1F` is inactive: -16.5%; for `CC(=O)N1CCN(c2ccc(OCc3nn(C)c(C)c3-c3cccc4c(CCCOc5cccc6ccccc56)c(C(=O)O)n(Cc5cccnc5)c34)cc2)CC1` it is inactive: 16.6%; for `CC1=C(C(=O)OCC2CCCCC2)C(c2c(F)cccc2Cl)CC(=O)N1` (stereo not given) it is inactive: -31.7%.
For the compound `COc1cc(OC)c(NC(=O)Nc2ccccc2OCc2cc(=O)n3cc(C)ccc3n2)cc1Cl`, the “activity change, negative = inhibition” value was inactive: 14.7%.
The figure for `COc1ccc(CCNC(=O)CCc2c(C)nc3nc(C)nn3c2C)cc1OC` is inactive: 3.99%; for `COc1ccc(C)cc1NC(=O)CCS(=O)(=O)c1ccc2c(c1)CC(=O)N2C` it is inactive: -13.9%; for `CCc1ccc(S(=O)(=O)c2nnn3c2nc(NC2CCCC2)c2sccc23)cc1` it is inactive: 6.95%.
To `COCCNC(=O)c1cc(Sc2ccc(F)cc2F)nc2ccccc12` belongs inactive: -24.9%; to `COc1ccc(-n2ccn(Cc3ccc(C)cc3)c(=O)c2=O)cc1OC`, inactive: -12.2%.
The figure for `O=C(c1ccc2c(c1)N(Cc1ccc(F)cc1)C(=O)c1ccccc1S2(=O)=O)N1CCC(Cc2ccccc2)CC1` is inactive: -12.7%; for `O=C(CSc1ccc2ccccc2n1)Nc1nsc(-c2ccc(Cl)cc2)n1` it is inactive: 5.84%.
In the case of `Cc1cccc(-n2c(=O)c3c(c4cc(C)ccc4n3C)n(Cc3ccccc3F)c2=O)c1`, the “activity change, negative = inhibition” value is inactive: -6.63%.
To `COc1ccc(C2=Nc3ccc(C)cc3NC(c3ccc(Cl)cc3)=N2)cc1` belongs inactive: 7.77%; to `COc1ccc(Cl)cc1NC(=O)CCCn1c(C)c2cnn(-c3ccccc3)c(=O)c2c1C`, inactive: -11.2%; to `COc1ccc(-c2noc(N3CCC(C(=O)Nc4ccc(C)c(F)c4)CC3)n2)cc1OC`, inactive: -19.3%.
On to `COc1cccc(Cn2c(=O)n(-c3ccc(Br)cc3F)c(=O)c3sc4ccccc4c32)c1`, for which the “activity change, negative = inhibition” value is inactive: -10%.
Regarding `CCOc1cccc2cc(-c3nc4sc5c(c4c(=O)[nH]3)CCC(C)C5)c(=O)oc12` (stereo not given), the “activity change, negative = inhibition” value is inactive: -7.43%.
The figure for `CCCCNC(=O)CSc1nc2ccccc2nc1Cc1ccc(Cl)cc1` is inactive: 3.9%; for `Cc1ccc(NC(=O)CC2Nc3cccc4cccc(c34)NC2=O)cc1` (stereo not given) it is inactive: -23%; for `COc1ccc(NC(=O)CCNS(=O)(=O)c2cccc3nsnc23)cc1OC` it is inactive: -10.1%.
The figure for `CCCOc1cccc(C(=O)N(Cc2cc(OC)c(OC)c(OC)c2)C2CCS(=O)(=O)C2)c1` (stereo not given) is inactive: -14.8%.
The figure for `Cc1ccc(OCCn2nnc3sc4c(c3c2=O)CCC(C(C)(C)C)C4)cc1` (stereo not given) is inactive: 6.06%; for `CC(C)c1ccc(NC(=O)c2cccn2-c2nnc(N3CCCCC3)s2)cc1` it is inactive: -29.9%; for `CCOC(=O)c1cccc(NC(=O)CCCn2c(C)c3cnn(-c4ccccc4)c(=O)c3c2C)c1` it is inactive: -24.2%.
Turning to `Cc1cccc(-n2ncc(C(=O)N3CCC(C)CC3)c2C2CCN(C(=O)OC(C)(C)C)CC2)c1`, the “activity change, negative = inhibition” value was inactive: 3.6%.
For the compound `COc1cc(C2CC(=O)Nc3c2c(=O)n(C)c(=O)n3C)cc(OC)c1OC` (stereo not given), the “activity change, negative = inhibition” value was inactive: -9.58%.
The figure for `CCCCn1c(CNC(=O)c2ccc(OC)cc2)nnc1SCC(=O)Nc1ccccc1` is inactive: -13.5%.
Regarding `Cc1ccc(CNC(=O)CCC(=O)N2CC(C)Sc3ccccc32)cc1` (stereo not given), the “activity change, negative = inhibition” value was inactive: -13.1%.
To `COc1ccc(-c2cc(C(C)=O)c(C)n2CCC(=O)NCc2ccc(F)cc2)cc1` belongs inactive: -15.7%; to `Cc1ccc(NC(=O)c2cc3c(=O)[nH]c4ccccc4c3n2C)cc1F`, inactive: 0.232%.
The figure for `COc1ccc(CCNC(=O)NCc2noc3ccc(C)cc23)c(OC)c1` is inactive: -22.3%; for `CC[C@]12CCCN3CCc4c(n(c5ccccc45)C(=O)C1)[C@@H]32` it is inactive: -15.7%; for `CCOC(=O)c1c(S(=O)(=O)NCC(=O)N2CCN(c3ccccc3OC)CC2)c(C)n(C)c1C` it is inactive: -0.156%.
To `Cc1cc(C)c(/C=C/c2onc(C)c2S(=O)(=O)N2CCC(C(=O)N3CCN(c4ccccc4)CC3)CC2)c(C)c1` belongs inactive: -15.5%; to `COC(=O)c1ccc(Cn2c(SCc3cccc(C)c3)nc3ccncc32)cc1`, inactive: -3.66%.
Regarding `CCOC(=O)c1sc2ncn(CC(=O)Nc3ccc(C)cc3C)c(=O)c2c1C`, the “activity change, negative = inhibition” value is inactive: -10.1%.
The entry for `CCn1cc(C(=O)O)c(=O)c2cc(F)c(N3CCN(C)CC3)cc21` is “inactive”; for `COc1cccc(NC(=O)c2cn(C3CCCCC3)c(=O)c3c2c2ccccc2n3C)c1` it is inactive: -16.2%; for `CCCCNC(=O)C(CC)Sc1nnc(-c2ccc(OC)c(OC)c2)c(-c2ccc(OC)c(OC)c2)n1` (stereo not given) it is inactive: -12.1%.
The figure for `CC1CCc2nc3ncn(CC(=O)Nc4cccc(C#N)c4)c(=O)c3cc2C1` (stereo not given) is inactive: -11.6%; for `COc1ccc(S(=O)(=O)N(CC(=O)N2CCC(C)CC2)c2ccc(C)cc2)cc1` it is inactive: -19.5%; for `COc1cc(Cl)c(C)cc1NC(=O)CN1c2ccccc2S(=O)(=O)c2ccccc21` it is inactive: -19.1%.
To `CCc1ccccc1Nc1nn2c(=O)c3ccc(C(=O)Nc4cc(C)cc(C)c4)cc3nc2s1` belongs inactive: -3.86%; to `Cc1nn(C)c2c1c(C(F)(F)F)cc(=O)n2CC(=O)NCc1ccccc1Cl`, inactive: 0.276%; to `CCOc1ccccc1NC(=O)C(C)Sc1nc2c(c(=O)[nH]1)CCCC2` (stereo not given), inactive: -2.94%.
For `CCc1cccc(CC)c1NC1=NS(=O)(=O)c2ccccc21`, the “activity change, negative = inhibition” value was inactive: -13.8%.
In the case of `CCOCCCNC(=O)CCc1nnc2ccc(N3CCN(c4cccc(OC)c4)CC3)nn12`, the “activity change, negative = inhibition” value is inactive: 1.8%.
To `CCOC(=O)c1ccccc1NC(=O)CCc1c(C)nc2ncnn2c1C` belongs inactive: -1.94%; to `Cc1ccc(NCc2nnc3n2CCCCC3)cc1Cl`, inactive: 10.5%.
In the case of `Cc1ccc2c(=O)cc(C(=O)Nc3nnc(C)s3)oc2c1`, the activity change, negative = inhibition is inactive: -0.676% [at 11.5 µM].
The figure for `CCn1nc(-c2ccccc2)c(-c2ccccc2)c(C(=O)OCCOC)c1=O` is inactive: -13%; for `Cc1oc(-c2ccccc2)nc1CNC(=O)Nc1ccccc1` it is inactive: 0%; for `CCOc1ccc(S(=O)(=O)N2CCN(c3ccccc3)CC2)cc1C(N)=O` it is inactive: -0.896%.
As to `CC(C)N(C(=O)Cn1cc(S(=O)(=O)Cc2ccc(C(F)(F)F)cc2)c2ccccc21)C(C)C`, the “activity change, negative = inhibition” value is inactive: -14.7%.
To `Cc1ccc(Nc2c(-c3ccccc3O)nc3ccc(Br)cn23)cc1` belongs inactive: 15.2%; to `COc1ccc2c(Sc3ccc(Cl)cc3)c(C(=O)NCCCN3CCCCC3)[nH]c2c1`, inactive: -29%.
As to `CCOc1ccc(-n2c(=O)c3c(C)c(C(=O)N(C)C)sc3n(CC(=O)Nc3c(C)cc(C)cc3C)c2=O)cc1`, the “activity change, negative = inhibition” value is inactive: -2.96%.
The figure for `Cc1cccc(NC(=O)CSc2nc3c([nH]c4ccccc43)c(=O)n2C)c1` is inactive: -20.7%; for `Cc1ccc(CN(C(=O)COc2ccc(C)c(C)c2)C2CCS(=O)(=O)C2)o1` (stereo not given) it is inactive: -15%.
As for `COc1ccc(S(=O)(=O)Nc2cc(-c3cn4ccccc4n3)ccc2C)cc1`, the “activity change, negative = inhibition” value is inactive: -29.9%.
For the compound `COc1cccc(C2C(C(=O)Nc3cccnc3)=C(C)Nc3nc(SCc4ccccc4)nn32)c1` (stereo not given), the “activity change, negative = inhibition” value was inactive: -2.37%.
Consider `Cc1nc2ccc(S(=O)(=O)CCC(=O)Nc3ccccc3C)cc2s1`, for which the “activity change, negative = inhibition” value is inactive: -4.13%.
Take `O=C(CC1NCCNC1=O)Nc1cccc(F)c1` (stereo not given): the “activity change, negative = inhibition” value was inactive: -13.9%.
The figure for `Cc1ccc2ncc3c(-c4ccccc4)nn(CC(=O)NC4CCCCC4)c3c2c1` is inactive: -13%; for `COc1ccccc1N1CCN(CCCNC(=O)Cn2ncc3c([nH]c4ccccc43)c2=O)CC1` it is inactive: 5.5%.
The figure for `COc1ccc(NC(=O)CSC2=Nc3ccccc3C3=NC(CCC(=O)NCc4ccco4)C(=O)N23)cc1` (stereo not given) is inactive: -16.6%; for `COc1ccccc1CNC(=O)C(=O)NCC(c1ccc2c(c1)OCO2)N1CCOCC1` (stereo not given) it is inactive: -17.2%.
To `CCc1ccc(CNc2nc3nc(C)c(Cc4ccccc4)c(=O)n3[nH]2)cc1` belongs inactive: -17.4%; to `CCc1ccc(-c2nc(SCC(=O)NCCOC)c(-c3ccc(C)cc3)[nH]2)cc1`, inactive: -21.4%; to `CC(=O)c1cccc(NC(=O)C2=CC(c3ccco3)=NS(=O)(=O)N2C)c1`, inactive: -6.75%.
On to `COc1ccc(Nc2nnc(-c3ccc(C)c(S(N)(=O)=O)c3)c3ccccc23)cc1`, for which the “activity change, negative = inhibition” value is inactive: -24.2%.
To `CCc1cccc(C)c1NC(=O)c1cnn(-c2ccc(F)cc2)c1-n1cccc1` belongs inactive: -37.5%; to `Cc1cccc(S(=O)(=O)c2cn(Cc3ccccc3)c3cc(N4CCCC(C)C4)c(F)cc3c2=O)c1` (stereo not given), inactive: -23.6%.
On to `Clc1ccc(CSc2nc(NCCc3ccccc3)c3ccccc3n2)cc1`, for which the “activity change, negative = inhibition” value is inactive: 2.53%.
With `Cc1cc(NC(=O)C2CCCN(S(=O)(=O)c3cccc4nonc34)C2)ccc1Br` (stereo not given), the “activity change, negative = inhibition” value is inactive: -6.88%.
